Data published in the supplement of paper PMC12067230.
Single values of this set are uncertain.

Assay: amyloid nucleation score relative to library mode (yeast Sup35 reporter selection) (log enrichment difference); higher = more amyloid nucleation; sequences are the first 22 residues of the Bri2 peptide extended by up to 12 random residues
Conditions: random library (experiment): 1;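 active = nucleation score significantly above 0 at FDR 0.05; inactive = not significantly above 0 or absent from output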
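Note: [psi-pin-] Saccharomyces cerevisiae expressing SupN fusions, induced by 100 µM Cu2SO4, selected 7 d at 30 °C without adenine and uracil, scored by deep sequencing of output versus input.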

Row | Sequence | amyloid nucleation score
1 | EASNCFAIRHFENKFAVETLICLLYFVGNKGGFT | 3.31
2 | EASNCFAIRHFENKFAVETLICVCGAPEGTAASC | inactive
3 | EASNCFAIRHFENKFAVETLICDQCFRRRRKWQG | 3.85
4 | EASNCFAIRHFENKFAVETLICVICRRELIDKGS | inactive
5 | EASNCFAIRHFENKFAVETLICQHWFIFSCVLSA | inactive
6 | EASNCFAIRHFENKFAVETLICVRVWPHLYGTSR | inactive
7 | EASNCFAIRHFENKFAVETLICTDLRD | inactive
8 | EASNCFAIRHFENKFAVETLICLGNGTGGLATLR | inactive
9 | EASNCFAIRHFENKFAVETLICLEGSVR | inactive
10 | EASNCFAIRHFENKFAVETLICDEWSNARARWGL | inactive
11 | EASNCFAIRHFENKFAVETLICRMERTGCWCCVD | 4.67
12 | EASNCFAIRHFENKFAVETLICLSFLIRGPSQTR | inactive
13 | EASNCFAIRHFENKFAVETLICATTAPSQGSREA | inactive
14 | EASNCFAIRHFENKFAVETLICLCRRDKIRRAIR | inactive
15 | EASNCFAIRHFENKFAVETLICRIG | 4.68
16 | EASNCFAIRHFENKFAVETLICFVQFDMHSHTCG | 4.46
17 | EASNCFAIRHFENKFAVETLICLMFFRF | inactive
18 | EASNCFAIRHFENKFAVETLICEG | inactive
19 | EASNCFAIRHFENKFAVETLICHRRVHYVYCFPA | -0.0194
20 | EASNCFAIRHFENKFAVETLICCGLAPRHLVLSD | 5.36
21 | EASNCFAIRHFENKFAVETLICRPTGPWGVVASA | inactive
22 | EASNCFAIRHFENKFAVETLICEARGSWCWQVCS | inactive
23 | EASNCFAIRHFENKFAVETLICCWRCWITLSRIT | 1.22
24 | EASNCFAIRHFENKFAVETLICRNQITLYGELVM | 4.44
25 | EASNCFAIRHFENKFAVETLICGNYVV | inactive
26 | EASNCFAIRHFENKFAVETLICELPWL | 5.11
27 | EASNCFAIRHFENKFAVETLICWSLFWC | inactive

Row | Sequence | amyloid nucleation score
28 | EASNCFAIRHFENKFAVETLICCMGMTLHNRTST | 7.38
29 | EASNCFAIRHFENKFAVETLICDTAGRMFVVKID | inactive
30 | EASNCFAIRHFENKFAVETLICLQLSLRFTARGR | 0.627
31 | EASNCFAIRHFENKFAVETLICACFGSGHERSQW | 8.75
32 | EASNCFAIRHFENKFAVETLICGVASDVAVANWA | inactive
33 | EASNCFAIRHFENKFAVETLICFARASGEVSGGV | 3.76
34 | EASNCFAIRHFENKFAVETLICDLSLLTWACCTV | 7.62
35 | EASNCFAIRHFENKFAVETLICLEMRMRQLLERQ | 3.45
36 | EASNCFAIRHFENKFAVETLICNN | -0.338
37 | EASNCFAIRHFENKFAVETLICKVE | inactive
38 | EASNCFAIRHFENKFAVETLICVAESSPWTTLCA | inactive
39 | EASNCFAIRHFENKFAVETLICAQWIGYDVGKWG | -0.0846
40 | EASNCFAIRHFENKFAVETLICVANMIKLCCVHR | inactive
41 | EASNCFAIRHFENKFAVETLICRRVWKRVRSCTA | inactive
42 | EASNCFAIRHFENKFAVETLICVFRVYRPRSYLG | inactive
43 | EASNCFAIRHFENKFAVETLICPVTCSWA | 5.86
44 | EASNCFAIRHFENKFAVETLICKGLRVMVYGVVA | inactive
45 | EASNCFAIRHFENKFAVETLICCSYQMQFVHGIV | 2.16
46 | EASNCFAIRHFENKFAVETLICRCPSYHSVVSLV | inactive
47 | EASNCFAIRHFENKFAVETLICLEWCTRVGLRMR | inactive
48 | EASNCFAIRHFENKFAVETLICRNVVSDLTVVRH | 6.41
49 | EASNCFAIRHFENKFAVETLICCSGVNTRRQYWR | 6.74
50 | EASNCFAIRHFENKFAVETLICGLGLGAAAEASV | 3.53
51 | EASNCFAIRHFENKFAVETLICKQEGTEAVWRVS | inactive
52 | EASNCFAIRHFENKFAVETLICWASGAVGLQAGR | 2.86
53 | EASNCFAIRHFENKFAVETLICYGRTEFCISW | -0.243
54 | EASNCFAIRHFENKFAVETLICLTVSVA | 1.19

Same assay, conditions: random library (experiment): 2

Row | Sequence | amyloid nucleation score
55 | EASNCFAIRHFENKFAVETLICYKRNVNLVRCLV | inactive
56 | EASNCFAIRHFENKFAVETLICALL | inactive
57 | EASNCFAIRHFENKFAVETLICIERLRLTACRFV | inactive
58 | EASNCFAIRHFENKFAVETLICRHCSQAIVWLYN | inactive
59 | EASNCFAIRHFENKFAVETLICLVIKRGYSYPNG | inactive
60 | EASNCFAIRHFENKFAVETLICGAFTYLRVISRT | inactive
61 | EASNCFAIRHFENKFAVETLICFA | inactive
62 | EASNCFAIRHFENKFAVETLICCNVLKGFWVEWM | 7.44
63 | EASNCFAIRHFENKFAVETLICFHYR | 5.11
64 | EASNCFAIRHFENKFAVETLICNLPSRK | -0.372
65 | EASNCFAIRHFENKFAVETLICFILCRINNYICE | -0.0296
66 | EASNCFAIRHFENKFAVETLICVIM | 8.48
67 | EASNCFAIRHFENKFAVETLICCSAEHSCTWFTH | 8.15
68 | EASNCFAIRHFENKFAVETLICQVVCTMNVCVDG | 7.89
69 | EASNCFAIRHFENKFAVETLICFNIS | 8.61
70 | EASNCFAIRHFENKFAVETLICHVYIS | 6.05
71 | EASNCFAIRHFENKFAVETLICCHHNMSIFASEL | 5.61
72 | EASNCFAIRHFENKFAVETLICLHMLGFFISDVR | inactive
73 | EASNCFAIRHFENKFAVETLICRFWWM | inactive

Row | Sequence | amyloid nucleation score
74 | EASNCFAIRHFENKFAVETLICFTFDRPYLGVVV | inactive
75 | EASNCFAIRHFENKFAVETLICHTMMGIALHYVQ | inactive
76 | EASNCFAIRHFENKFAVETLICWLVRSF | inactive
77 | EASNCFAIRHFENKFAVETLICHLHIRNNRIHPG | 5.88
78 | EASNCFAIRHFENKFAVETLICEYRIMSIWTSTW | inactive
79 | EASNCFAIRHFENKFAVETLICCQGVCDSRVCPG | 6.75
80 | EASNCFAIRHFENKFAVETLICRQC | inactive
81 | EASNCFAIRHFENKFAVETLICTMCSPPI | 5.51
82 | EASNCFAIRHFENKFAVETLICCSVI | 8.08
83 | EASNCFAIRHFENKFAVETLICMDAYTCVRAMPD | inactive
84 | EASNCFAIRHFENKFAVETLICELVLSFGSVNMN | 4.47
85 | EASNCFAIRHFENKFAVETLICCCVHHDVSALWY | 8.23
86 | EASNCFAIRHFENKFAVETLICGNALKTNRICSA | inactive
87 | EASNCFAIRHFENKFAVETLICGNIRVSGTLRGW | 4.67
88 | EASNCFAIRHFENKFAVETLICNIMVRLKLGGKP | 4.46
89 | EASNCFAIRHFENKFAVETLICNMWFVYTVVVYR | inactive
90 | EASNCFAIRHFENKFAVETLICICPGSYPRLCE | 6.66
91 | EASNCFAIRHFENKFAVETLICVPQRLIIRKMSC | inactive

Same assay, conditions: random library (experiment): 3

Row | Sequence | amyloid nucleation score
92 | EASNCFAIRHFENKFAVETLICEALGRIDVRVGR | inactive
93 | EASNCFAIRHFENKFAVETLICYYVQFVCRIDLS | inactive
94 | EASNCFAIRHFENKFAVETLICDMPFRWLDATWE | inactive
95 | EASNCFAIRHFENKFAVETLICRPRDSGESQTRL | inactive
96 | EASNCFAIRHFENKFAVETLICLRDQSRCLRSEE | inactive
97 | EASNCFAIRHFENKFAVETLICEFRLGVRVWVIS | inactive
98 | EASNCFAIRHFENKFAVETLICHLL | 5.78
99 | EASNCFAIRHFENKFAVETLICNVDCADGSAWR | 3.52
100 | EASNCFAIRHFENKFAVETLICGGTHARLVGDWR | inactive
101 | EASNCFAIRHFENKFAVETLICYPLKMWEWNRSW | inactive
102 | EASNCFAIRHFENKFAVETLICAPM | 4.79
103 | EASNCFAIRHFENKFAVETLICAVRMARACDCGR | inactive
104 | EASNCFAIRHFENKFAVETLICRCVARCESVAWA | inactive
105 | EASNCFAIRHFENKFAVETLICELAPSKDRGSYW | inactive
106 | EASNCFAIRHFENKFAVETLICAYPSLEYMFVSK | 3.77
107 | EASNCFAIRHFENKFAVETLICNGNAYLIRATCT | inactive
108 | EASNCFAIRHFENKFAVETLICCAMNFKPICLVE | 5.91
109 | EASNCFAIRHFENKFAVETLICRFSAVCPRLSCR | inactive
110 | EASNCFAIRHFENKFAVETLICLGGNSRGDDMEG | 1.47
111 | EASNCFAIRHFENKFAVETLICHVPWYNCLTYCC | 5.9
112 | EASNCFAIRHFENKFAVETLICLGMHSGTGGDWG | inactive
113 | EASNCFAIRHFENKFAVETLICYAPWIEA | inactive
114 | EASNCFAIRHFENKFAVETLICPNGLQLMSPAAR | inactive
115 | EASNCFAIRHFENKFAVETLICNVLARPHGRGRR | 7.21
116 | EASNCFAIRHFENKFAVETLICYVATNKPLGGLA | inactive
117 | EASNCFAIRHFENKFAVETLICKVFRFRVRTCLR | inactive
118 | EASNCFAIRHFENKFAVETLICDDTSRGHGSSSA | inactive
119 | EASNCFAIRHFENKFAVETLICGYFN | 4.99
120 | EASNCFAIRHFENKFAVETLICGVWVASKSLLNS | inactive
